# Reference: a collection of fitness landscapes (doi:10.1016/j.celrep.2020.107928)
# In all, about 81,000 sequences were measured (“one-hybrid fitness for binding parS DNA”: median about -0.17, highest 2% from about 0.51 on). Some of the results follow.
# B1: Caulobacter ParB omega fusion; a variant is named by its letters at X, in order, B8GW30 (parent)
# chain: MESVVVGEPGMSEGRRGLGRGLSALLGEVDAAPAQAPGEQLGGSREAPIEILQRNPDQPRRTFREEDLEDLSNSIREKGVLQPILVRPSPDTAGEYQIVAGERAWRAAQRAGLKTVPIMVRELDDLAVLEIGIIENVQRADLNVLEEALSYKVLMEKFERTQENIAQTIGKSXSHVANXMRLLXLPDEVQSYLVSGELTAXHARAIAAAADPVALAKQIIEGGLSVRETEALARKAPNLSAGKSKGGRPPRVKDTDTQALESDLSSVLGLDVSIDHRGSTGTLTITYATLEQLDDLCNRLTRGI
# Variants of: B1
# Assay: one-hybrid fitness for binding parS DNA (scaled: cognate 1, non-cognate 0); higher = stronger binding
# Conditions: with parS DNA site
# Method in brief: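 In E. coli USO, a HIS3 reporter with its site placed 19 bp from the promoter was used to select Caulobacter ParB variants randomised at four specificity codons. Growth lasted 48 hours at 37°C on histidine-free M9 containing 0.1 mM IPTG and 5 mM 3-AT. Fitness was taken as the log change in variant-to-wild-type read ratio from Illumina sequencing of pre- and post-selection plasmids, rescaled between the non-cognate and cognate sites.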
row,Variant,one-hybrid fitness for binding parS DNA
1,NPGS,≤ 0.2
2,WIWG,≤ 0.2
3,CPLD,≤ 0.2
4,SFQI,≤ 0.2
5,LFLG,≤ 0.2
6,RDYT,≤ 0.2
7,WLLC,≤ 0.2
8,YMSS,≤ 0.2
9,DWLL,≤ 0.2
10,GPWN,≤ 0.2
11,DWAG,≤ 0.2
12,KHIG,≤ 0.2
13,RAAK,≤ 0.2
14,NRLY,≤ 0.2
15,DNEC,≤ 0.2
16,TRNR,≤ 0.2
17,YTRE,≤ 0.2
18,LSRP,≤ 0.2
19,NMTY,≤ 0.2
20,LPLH,≤ 0.2
21,WSVC,≤ 0.2
22,CLRS,≤ 0.2
23,GWRK,≤ 0.2
24,QTIC,≤ 0.2
25,TMMS,≤ 0.2

row,Variant,one-hybrid fitness for binding parS DNA
1,IYNM,≤ 0.2
2,QGVP,≤ 0.2
3,CKPS,≤ 0.2
4,GHNG,≤ 0.2
5,QNPI,≤ 0.2
6,SFLS,≤ 0.2
7,RMMG,0.985
8,HPDE,≤ 0.2
9,TQHL,≤ 0.2
10,ALFA,≤ 0.2
11,AITV,≤ 0.2
12,PCKG,≤ 0.2
13,EHDC,≤ 0.2
14,TSGE,≤ 0.2
15,CGYF,≤ 0.2
16,ARMM,≤ 0.2
17,ADHG,≤ 0.2
18,TPRN,≤ 0.2
19,QTQF,≤ 0.2
20,CVAR,≤ 0.2
21,HVTV,≤ 0.2
22,CDKA,≤ 0.2
23,ITYW,≤ 0.2
24,ERGV,≤ 0.2
25,TANH,≤ 0.2

row,Variant,one-hybrid fitness for binding parS DNA
1,NYIG,≤ 0.2
2,ECLS,≤ 0.2
3,HKAS,≤ 0.2
4,CCHL,≤ 0.2
5,MTRI,≤ 0.2
6,PWPT,≤ 0.2
7,CRAD,≤ 0.2
8,SVTH,≤ 0.2
9,LALK,≤ 0.2
10,FTMY,≤ 0.2
11,YATH,≤ 0.2
12,KHDS,≤ 0.2
13,TSIH,≤ 0.2
14,NHYR,≤ 0.2
15,VPHF,≤ 0.2
16,WGRL,≤ 0.2
17,EITI,≤ 0.2
18,KSRR,≤ 0.2
19,HQST,≤ 0.2
20,RFNG,1
21,ATNH,≤ 0.2
22,VDVV,≤ 0.2
23,AMCN,≤ 0.2
24,GCQR,≤ 0.2
25,WPRS,≤ 0.2

row,Variant,one-hybrid fitness for binding parS DNA
1,IYFG,≤ 0.2
2,AAPE,≤ 0.2
3,RCFP,≤ 0.2
4,KWEL,≤ 0.2
5,MKSN,≤ 0.2
6,GNKY,≤ 0.2
7,VLIG,≤ 0.2
8,GKAE,≤ 0.2
9,THPC,≤ 0.2
10,DQPR,≤ 0.2
11,INPC,≤ 0.2
12,PVGA,≤ 0.2
13,NTPW,≤ 0.2
14,KANT,≤ 0.2
15,NRSG,≤ 0.2
16,WTRT,≤ 0.2
17,IYNT,≤ 0.2
18,GAKT,≤ 0.2
19,EWQS,≤ 0.2
20,FLAF,≤ 0.2
21,HIST,≤ 0.2
22,HSNV,≤ 0.2
23,PFTK,≤ 0.2
24,AELR,≤ 0.2
25,SFFI,≤ 0.2

row,Variant,one-hybrid fitness for binding parS DNA
1,RELP,≤ 0.2
2,QARF,≤ 0.2
3,DPAS,≤ 0.2
4,RKNI,≤ 0.2
5,KGTR,≤ 0.2
6,CLHL,≤ 0.2
7,DASI,≤ 0.2
8,TTKQ,≤ 0.2
9,KSFF,≤ 0.2
10,GHWA,≤ 0.2
11,PHIK,≤ 0.2
12,KLGR,≤ 0.2
13,MPGY,≤ 0.2
14,NLSN,≤ 0.2
15,QSDR,≤ 0.2
16,ADLV,≤ 0.2
17,KHEG,≤ 0.2
18,ASFA,≤ 0.2
19,LWNR,≤ 0.2
20,KGAN,≤ 0.2
21,QLFM,≤ 0.2
22,TAWI,≤ 0.2
23,KRRK,≤ 0.2
24,KDMG,≤ 0.2
25,LKRI,≤ 0.2

row,Variant,one-hybrid fitness for binding parS DNA
1,GYKL,≤ 0.2
2,NIKQ,≤ 0.2
3,QLRL,≤ 0.2
4,GAPT,≤ 0.2
5,HRLK,≤ 0.2
6,RNAW,≤ 0.2
7,YCAL,≤ 0.2
8,RFRD,≤ 0.2
9,SRGE,≤ 0.2
10,YLAT,≤ 0.2
11,MNPL,≤ 0.2
12,MFVT,≤ 0.2
13,AVYT,≤ 0.2
14,TWQS,≤ 0.2
15,HKGC,≤ 0.2
16,GNDV,≤ 0.2
17,VHHN,≤ 0.2
18,GANC,≤ 0.2
19,GLNP,≤ 0.2
20,KQMR,≤ 0.2
21,AADR,≤ 0.2
22,MNDS,≤ 0.2
23,PTRN,≤ 0.2
24,PKKF,≤ 0.2
25,SPSF,≤ 0.2

row,Variant,one-hybrid fitness for binding parS DNA
1,VNGK,≤ 0.2
2,CYVS,≤ 0.2
3,WSNC,≤ 0.2
4,QGKL,≤ 0.2
5,AQIV,≤ 0.2
6,SFTY,≤ 0.2
7,KCCV,≤ 0.2
8,HPCW,≤ 0.2
9,INYP,≤ 0.2
10,HVGL,≤ 0.2
11,RYDH,≤ 0.2
12,WYHG,≤ 0.2
13,RSRK,≤ 0.2
14,PATP,≤ 0.2
15,RAAC,0.98
16,PIQC,≤ 0.2
17,IRYC,≤ 0.2
18,SPAV,≤ 0.2
19,LRSV,≤ 0.2
20,TWMY,≤ 0.2
21,FYVC,≤ 0.2
22,QGNE,≤ 0.2
23,WFKG,≤ 0.2
24,GFNR,≤ 0.2
25,KTSK,≤ 0.2

row,Variant,one-hybrid fitness for binding parS DNA
1,LIYR,≤ 0.2
2,RNFQ,≤ 0.2
3,YQTN,≤ 0.2
4,CRRC,≤ 0.2
5,SKQF,≤ 0.2
6,QRRL,≤ 0.2
7,PHLT,≤ 0.2
8,QAQT,≤ 0.2
9,QPVF,≤ 0.2
10,NTSG,≤ 0.2
11,APWG,≤ 0.2
12,RGFL,≤ 0.2
13,AYWA,≤ 0.2
14,DLFE,≤ 0.2
15,SLCV,≤ 0.2
16,CSMD,≤ 0.2
17,KWAR,≤ 0.2
18,QGQR,≤ 0.2
19,RHCV,≤ 0.2
20,LRHK,≤ 0.2
